# Laboratory results published in patent US20240368219A1, “ACTIVATION OF E6AP/UBE3A-MEDIATED PROTEIN UBIQ[…] D[…] BY A CYCLIC GAMMA-AA PEPTIDE” (University of South Florida, priority 2022, published 2024).
# “Also recorded” adds a separate entry of the source. For part of these data: Part of at least one peptide drawing is inferred or uncertain, most often the ends. Some entries repeat one wording, which the source may state once for all of them. For part of these data: For at least one compound, name, drawing or mass did not settle the structure. Some entries share one result that the patent states for a list of compounds.
# Experiments:
# [1] = target: T1, HECT domain of E6AP (Homo sapiens, UniProt Q05086); assay: Kd (nM)
# T1 construct: serial dilution of E6AP HECT domain; inferred from pET28a vector and Ni-NTA purification; made in house; host or cells: E. coli BL21 (DE3) pLysS, plasmid pET28a-E6AP HECT
# [2] = target: T2, full-length E6AP (Homo sapiens, UniProt Q05086); assay: In vitro self-ubiquitination of full-length E6AP (Uba1-UbcH7 cascade, Western blot anti-Flag); format: biochemical; conditions: for effect on self-ubiquitination of full-length E6AP at 100 μM: 100 μM peptide
# T2 construct: 0.5 μM wt N-terminal Flag-tagged E6AP HECT domain or full-length protein; inferred from pET28a vector and Ni-NTA purification; made in house; host or cells: E. coli BL21 (DE3) pLysS, plasmid pET28a-E6AP full-length
# T2 sequence (Q05086 1-875): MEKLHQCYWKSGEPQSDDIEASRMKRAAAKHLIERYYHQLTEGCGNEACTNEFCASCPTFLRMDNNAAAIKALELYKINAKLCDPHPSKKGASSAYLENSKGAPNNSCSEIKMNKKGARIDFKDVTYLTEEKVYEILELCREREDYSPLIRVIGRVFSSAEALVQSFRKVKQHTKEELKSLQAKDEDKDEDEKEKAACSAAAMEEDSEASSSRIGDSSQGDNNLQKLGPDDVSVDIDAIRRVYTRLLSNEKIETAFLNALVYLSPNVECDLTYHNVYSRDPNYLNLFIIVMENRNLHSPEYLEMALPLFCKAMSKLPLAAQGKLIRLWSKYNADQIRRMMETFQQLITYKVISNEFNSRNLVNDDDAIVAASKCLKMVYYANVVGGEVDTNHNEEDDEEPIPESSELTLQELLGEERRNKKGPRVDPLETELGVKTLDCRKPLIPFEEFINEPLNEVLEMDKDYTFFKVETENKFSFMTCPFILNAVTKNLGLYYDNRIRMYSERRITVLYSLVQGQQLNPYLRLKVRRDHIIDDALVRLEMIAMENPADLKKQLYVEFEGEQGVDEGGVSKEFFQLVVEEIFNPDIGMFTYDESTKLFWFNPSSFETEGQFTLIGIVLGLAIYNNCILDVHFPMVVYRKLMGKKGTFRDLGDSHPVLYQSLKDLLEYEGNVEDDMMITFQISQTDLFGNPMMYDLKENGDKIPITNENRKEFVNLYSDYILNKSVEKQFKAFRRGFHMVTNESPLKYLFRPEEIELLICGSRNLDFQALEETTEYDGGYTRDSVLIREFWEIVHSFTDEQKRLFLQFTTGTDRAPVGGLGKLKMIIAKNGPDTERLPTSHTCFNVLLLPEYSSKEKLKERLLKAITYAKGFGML
# [3] = target: T3, E6AP (Homo sapiens, UniProt Q05086); assay: In vitro substrate ubiquitination by E6AP (Uba1-UbcH7-E6AP cascade; substrates UbxD8, HHR23A, β-catenin); format: biochemical; conditions: for effect on UbxD8 ubiquitination catalyzed by E6AP: 10 μM and 100 μM peptide
# T3 construct: HECT do-main and full-length protein of E6AP, UB and UbxD8 were expressed from; inferred from pET28a vector and Ni-NTA purification; made in house; host or cells: E. coli BL21 (DE3) pLysS, pET28a
# T3 sequence (Q05086 1-875): T2 sequence (Q05086 1-875)
# [4] = target: T4, E6AP HECT domain (Homo sapiens, UniProt Q05086); assay: In vitro self-ubiquitination of the E6AP HECT domain (Uba1-UbcH7 cascade, Western blot anti-Flag); format: biochemical
# T4 construct: serial dilution of E6AP HECT domain; inferred from pET28a vector and Ni-NTA purification; made in house; host or cells: E. coli BL21 (DE3) pLysS, plasmid pET28a-E6AP HECT
# T4 sequence (Q05086 518-875 limits assumed): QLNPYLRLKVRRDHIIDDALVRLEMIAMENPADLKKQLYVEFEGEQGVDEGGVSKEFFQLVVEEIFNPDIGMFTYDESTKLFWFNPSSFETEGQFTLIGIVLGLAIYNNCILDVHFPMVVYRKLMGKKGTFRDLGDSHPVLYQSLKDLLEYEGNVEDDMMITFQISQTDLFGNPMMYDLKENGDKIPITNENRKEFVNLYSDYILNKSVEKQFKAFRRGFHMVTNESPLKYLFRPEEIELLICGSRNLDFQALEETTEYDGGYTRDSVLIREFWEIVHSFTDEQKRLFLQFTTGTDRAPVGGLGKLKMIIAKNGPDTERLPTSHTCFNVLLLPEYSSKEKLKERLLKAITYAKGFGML
# [5] = system: E6AP substrates UbxD8 and HHR23A in HEK293 cells; assay: Cycloheximide (CHX) chase assay of E6AP substrate degradation; format: cell-based
# [6] = system: E6AP substrates UbxD8 and HHR23A in HEK293 cells; assay: Cellular ubiquitination of E6AP substrates (immunoprecipitation, anti-UB Western blot, MG132); format: cell-based; conditions: 25 and 50 μM
# [7] = target: T5, E6AP pairing with the E6 protein of HPV (Homo sapiens, UniProt Q05086); assay: In vitro p53 ubiquitination catalyzed by E6AP with HPV E6 protein; format: biochemical; conditions: 10 μM or 100 μM peptide, 0.5 μM E6 protein
# T5 construct: HECT do-main and full-length protein of E6AP, UB and UbxD8 were expressed from; made in house; host or cells: E. coli BL21 (DE3) pLysS, pET28a (E6AP only)
# T5 sequence (Q05086 1-875): T2 sequence (Q05086 1-875)
# [8] = varying concentrations 1 μM to 100 μM
# [9] = HEK293 cells, 50 μM vs no peptide
smiles,measurement,setting,value
CC(C)C[C@H]1CN(C(=O)CCc2ccccc2)CC(=O)N[C@@H](Cc2ccccc2)CN(C(=O)Cc2ccc3c(c2)OCO3)CC(=O)N[C@@H](CC(C)C)CN(CC(=O)N[C@@H](CCCCNC(=S)Nc2ccc3c(c2)C(=O)OC32c3ccc(O)cc3Oc3cc(O)ccc32)C(N)=O)C(=O)CCSCc2ccc(cc2)C(=O)N[C@@H](C)CN(C(=O)Cc2ccc3ccccc3c2)CC(=O)N1 [P3],Kd,[1],187 ± 89.6 nM
CC(C)C[C@H]1CN(CC(N)=O)C(=O)CCSCc2ccc(cc2)C(=O)N[C@@H](C)CN(C(=O)Cc2ccc3ccccc3c2)CC(=O)N[C@@H](CC(C)C)CN(C(=O)CCc2ccccc2)CC(=O)N[C@@H](Cc2ccccc2)CN(C(=O)Cc2ccc3c(c2)OCO3)CC(=O)N1 [P3],effect on self-ubiquitination of full-length E6AP at 100 μM,[2],weak inhibitory effect
same,effect on UbxD8 ubiquitination catalyzed by E6AP,[3]; substrate UbxD8,did not show much effect
CC(C)C[C@H]1CN(C(=O)CCC2CCCCC2)CC(=O)N[C@@H](Cc2ccccc2)CN(C(=O)Cc2ccc3c(c2)OCO3)CC(=O)N[C@@H](CC(C)C)CN(CC(=O)N[C@@H](CCCCNC(=S)Nc2ccc3c(c2)C(=O)OC32c3ccc(O)cc3Oc3cc(O)ccc32)C(N)=O)C(=O)CCSCc2ccc(cc2)C(=O)N[C@@H](Cc2ccccc2)CN(C(=O)Cc2ccc3ccccc3c2)CC(=O)N1 [P4],Kd,[1],82.2 ± 27.6 nM
CC(C)C[C@H]1CN(CC(N)=O)C(=O)CCSCc2ccc(cc2)C(=O)N[C@@H](Cc2ccccc2)CN(C(=O)Cc2ccc3ccccc3c2)CC(=O)N[C@@H](CC(C)C)CN(C(=O)CCC2CCCCC2)CC(=O)N[C@@H](Cc2ccccc2)CN(C(=O)Cc2ccc3c(c2)OCO3)CC(=O)N1 [P4],effect on self-ubiquitination of full-length E6AP at 100 μM,[2],weak inhibitory effect
same,effect on UbxD8 ubiquitination catalyzed by E6AP,[3]; substrate UbxD8,did not show much effect
COc1cc(CC(=O)N2CC(=O)N[C@@H](Cc3ccccc3)CN(C(=O)CC3CC3)CC(=O)N[C@@H](CC(C)C)CN(CC(=O)N[C@@H](CCCCNC(=S)Nc3ccc4c(c3)C(=O)OC43c4ccc(O)cc4Oc4cc(O)ccc43)C(N)=O)C(=O)CCSCc3ccc(cc3)C(=O)N[C@@H](CCC(=O)O)CN(C(=O)Cc3ccc4c(c3)OCO4)CC(=O)N[C@@H](CC(C)C)C2)cc(OC)c1 [P5],Kd,[1],162 ± 78.7 nM
COc1cc(CC(=O)N2CC(=O)N[C@@H](Cc3ccccc3)CN(C(=O)CC3CC3)CC(=O)N[C@@H](CC(C)C)CN(CC(N)=O)C(=O)CCSCc3ccc(cc3)C(=O)N[C@@H](CCC(=O)O)CN(C(=O)Cc3ccc4c(c3)OCO4)CC(=O)N[C@@H](CC(C)C)C2)cc(OC)c1 [P5],effect on UbxD8 ubiquitination catalyzed by E6AP,[3]; substrate UbxD8,weaker stimulatory effect
COc1cc(CC(=O)N2CC(=O)N[C@@H](Cc3ccccc3)CN(C(=O)CC3CC3)CC(=O)N[C@@H](CC(C)C)CN(CC(N)=O)C(=O)CCSCc3ccc(cc3)C(=O)N[C@@H](CCCCN)CN(C(=O)Cc3ccc4ccccc4c3)CC(=O)N[C@@H](CC(C)C)C2)cc(OC)c1 [P6],effect on self-ubiquitination of the HECT domain (UB-HECT conjugate formation),[4]; 10 μM and 100 μM peptide,enhanced the formation of polyubiquitinated HECT species; also recorded: stimulatory effect
same,"activation of the HECT domain measured by self-ubiquitination, varying concentrations",[4]; [8],Dose-dependent activation
same,concentration at which the peptide can stimulate HECT self-ubiquitination,[4]; [8],5 µM
same,concentration at which Rad23A degradation was accelerated,"[5]; CHX chase, 14 h preincubation",1 µM
same,concentration at which UbxD8 degradation was accelerated,"[5]; CHX chase, 14 h preincubation",5 µM
same,HHR23A degradation in CHX chase,[5]; [9],faster degradation pattern
same,UbxD8 degradation in CHX chase,[5]; [9],faster degradation pattern
same,HHR23A degradation in CHX chase at low concentration,"[5]; HEK293 cells, 1 or 5 μM",accelerated degradation
same,effect on self-ubiquitination of full-length E6AP,[2]; 10 μM and 100 μM peptide,stimulated E6AP self-ubiquitination
same,"activation of full-length E6AP measured by self-ubiquitination, varying concentrations",[2]; [8],Dose-dependent activation
same,concentration at which the peptide can stimulate full-length E6AP self-ubiquitination,[2]; [8],5 µM
same,HHR23A ubiquitination level in cells,[6],enhanced level of protein ubiquitination; also recorded: enhanced the ubiquitination
same,UbxD8 ubiquitination level in cells,[6],enhanced level of protein ubiquitination; also recorded: enhanced the ubiquitination
same,HHR23A ubiquitination with varying peptide concentrations,"[3]; substrate HHR23A, 1 μM to 100 μM",enhanced ubiquitination in a dose-dependent manner
same,UbxD8 ubiquitination with varying peptide concentrations,"[3]; substrate UbxD8, 1 μM to 100 μM",enhanced ubiquitination in a dose-dependent manner
same,effect on UbxD8 ubiquitination catalyzed by E6AP,[3]; substrate UbxD8,distinctive stimulatory effect
same,β-catenin ubiquitination with varying peptide concentrations,"[3]; substrate β-catenin, 1 μM to 100 μM",enhanced ubiquitination in a dose-dependent manner
same,effect on p53 ubiquitination with HPV E6,[7],no additional enhancement
COc1cc(CC(=O)N2CC(=O)N[C@@H](C)CN(C(=O)Cc3cc(OC)cc(OC)c3)CC(=O)N[C@@H](CC(C)C)CN(CC(=O)N[C@@H](CCCCNC(=S)Nc3ccc4c(c3)C(=O)OC43c4ccc(O)cc4Oc4cc(O)ccc43)C(N)=O)C(=O)CCSCc3ccc(cc3)C(=O)N[C@@H](Cc3ccccc3)CN(C(=O)Cc3ccc4c(c3)OCO4)CC(=O)N[C@@H](Cc3ccccc3)C2)cc(OC)c1 [P7],Kd,[1],83.4 ± 48.8 nM
COc1cc(CC(=O)N2CC(=O)N[C@@H](C)CN(C(=O)Cc3cc(OC)cc(OC)c3)CC(=O)N[C@@H](CC(C)C)CN(CC(N)=O)C(=O)CCSCc3ccc(cc3)C(=O)N[C@@H](Cc3ccccc3)CN(C(=O)Cc3ccc4c(c3)OCO4)CC(=O)N[C@@H](Cc3ccccc3)C2)cc(OC)c1 [P7],effect on UbxD8 ubiquitination catalyzed by E6AP,[3]; substrate UbxD8,weaker stimulatory effect
C[C@H]1CN(C(=O)Cc2ccc3c(c2)OCO3)CC(=O)N[C@@H](Cc2ccccc2)CN(C(=O)Cc2ccc3ccccc3c2)CC(=O)N[C@@H](CCC(=O)O)CN(C(=O)CC2CC2)CC(=O)N[C@@H](Cc2ccccc2)CN(CC(=O)N[C@@H](CCCCNC(=S)Nc2ccc3c(c2)C(=O)OC32c3ccc(O)cc3Oc3cc(O)ccc32)C(N)=O)C(=O)CCSCc2ccc(cc2)C(=O)N1 [P8],Kd,[1],171 ± 49.9 nM
C[C@H]1CN(C(=O)Cc2ccc3c(c2)OCO3)CC(=O)N[C@@H](Cc2ccccc2)CN(C(=O)Cc2ccc3ccccc3c2)CC(=O)N[C@@H](CCC(=O)O)CN(C(=O)CC2CC2)CC(=O)N[C@@H](Cc2ccccc2)CN(CC(N)=O)C(=O)CCSCc2ccc(cc2)C(=O)N1 [P8],effect on UbxD8 ubiquitination catalyzed by E6AP,[3]; substrate UbxD8,weaker stimulatory effect
